The results in this text go back to PubChem BioAssay AID463173 (ICCB-Longwood Screening Facility, Harvard Medical School, 2010).

About 1,700 (3.3%) of roughly 52,000 compounds were called active. Rule as the data show it: active = survival mostly below about 52% (no sharp cut-off); inactive = mostly above about 56%. The list shows a part of the results.

For the assay, the system named is Wild type. Description: S. aureus survival, RN4220 and DeltatarO strains – OD600, teichoic acid synthesis inhibitors, primary screen (AID 463173). Conditions: S. aureus RN4220 wild type/DeltatarO growth, OD600, 18 h, stronger effect = lower value, screened at 18.75 µg/mL (by protocol).
Regarding `CC(C)Oc1ccc(CNC(=O)c2cc3ccccn3n2)cc1`, the survival was inactive: 97%. For `CC(=O)Nc1ccc(S(=O)(=O)N2CCC(n3c(C(F)(F)F)nc4cccnc43)CC2)cc1`, the survival was inactive: 75%.

With `COc1cccc(-c2cc(C(=O)Nc3cc(Cl)ccc3O)on2)c1`, the survival was inactive: 102%. Then `Cc1ccc(CCNC(=O)CCCn2nc(C)c3c(C)n(-c4ccccc4)nc3c2=O)cc1`, with inactive: 79%; and `COc1cccc(N2CCN(C(=O)CCc3c(C)nc4c(c3C)c(=O)n(C)c(=O)n4C)CC2)c1`, with inactive: 91%. For the compound `Cc1ccccc1-n1c(SCc2ccc(Cl)cc2)nc2[nH]ncc2c1=O`, the survival is inactive: 73%.

As for `CCC(C)NC(=O)c1ccc2c(c1)N(Cc1ccccc1)C(=O)c1ccccc1S2` (stereo not given), the survival is inactive: 79%. For `CCOc1ccc(CNC(=O)C2CCCN(S(=O)(=O)c3ccc4c(ccn4C)c3)C2)cc1` (stereo not given), the survival is inactive: 81%. With `CCN(CC)c1cc2c(cc1F)c(=O)c(S(=O)(=O)c1ccc(OC)cc1)cn2CC`, the survival is inactive: 124%. In the case of `CCOCCCNc1ccc(-c2ccccc2)nn1` it was inactive: 102%. Then `CC(C)(C)c1ccc(-c2nc(SCCCOc3ccccc3)n3[nH]c(=O)cc3n2)cc1`, with inactive: 82%; and `COc1ccc(-c2c3c(=O)n(C)c(=O)n(C)c3c3c(C)nc4ccccc4n23)cc1`, with inactive: 74%; and `COc1ccc(-c2nc(CN3CCC(C(=O)NCc4ccccc4)CC3)c(C)o2)cc1OC`, with inactive: 92%. For the compound `Cn1nnc2c(N3CCN(c4ccccc4Cl)CC3)ncnc21`, the survival is inactive: 69%. Then `CCOC(=O)c1ccccc1NC(=O)N(C(C)C)C1CCN(C(C)=O)CC1`, with inactive: 83%. Take `CCOC(=O)Cn1c(=O)n(-c2ccccc2OC)c2nc(-c3cccc(F)c3)nc(C(N)=O)c21`: the survival was inactive: 57%. With `Cc1ccc(-c2nnc(SCc3cccc(C#N)c3)o2)cc1`, the survival is inactive: 64%. Turning to `CCOC(=O)c1cccnc1SCC(=O)Nc1ccc(C)cc1C`, the survival was inactive: 71%. In the case of `COc1ccc(-c2nc(C)c(CCNS(=O)(=O)c3cc(C)c(C)cc3C)s2)cc1` it was inactive: 64%; in that of `O=C(NCCc1ccccc1)c1nnc(Cc2cccc(F)c2)o1`, inactive: 114%; in that of `CN(C)CCNC(=O)c1ccc2c(=O)n3c(nc2c1)CCCCC3`, inactive: 124%. Regarding `CCCCc1ccc(NC(=O)c2ccc(=O)n(Cc3cccc(C)c3)c2)cc1`, the survival is inactive: 77%. In the case of `Cc1ccc2c(c1)-c1c(cnc3cc(-c4ccccc4)nn13)CO2` it was inactive: 68%; in that of `CCSc1ncc(Cl)c(C(=O)Nc2ccc(S(=O)(=O)N3CCCCC3)cc2)n1`, inactive: 93%; in that of `O=C(CCS(=O)(=O)c1cccs1)Nc1ccc(C(=O)Nc2ccccc2F)cc1`, inactive: 135%. As to `Cc1ccc(C)c(Cn2cc(S(=O)(=O)c3ccc(Cl)cc3)c(=O)c3cc(F)ccc32)c1`, the survival is inactive: 75%. Then `CCc1ccc(NC(=O)c2ccc3[nH]c(C)c(C)c3c2)cc1`, with inactive: 152%. Then `CCN(Cc1ccccc1)C(=O)CN(c1ccc(OC)cc1)S(=O)(=O)c1c(C)nn(C)c1C`, with inactive: 71%; and `COc1ccc(Cl)cc1NS(=O)(=O)c1ccc2c(c1)NC(=O)CC(=O)N2`, with inactive: 80%; and `CCCCN(CCCC)CCNC(=O)c1cn(CC)c2ccc(S(=O)(=O)N(C)C3CCCCC3)cc2c1=O`, with inactive: 155%. In the case of `CCOc1ccc(NC(=O)Cn2c(=O)n(-c3cccc(OC)c3)c(=O)c3c4c(sc32)CCCC4)cc1`, the survival is inactive: 98%. Take `CC(=O)N1CCc2c(sc3c2c(=O)n(CCc2ccccc2)c(=O)n3Cc2ccc(Cl)cc2)C1`: the survival is inactive: 65%. Take `CCOC(=O)C1CCN(C(=O)Cn2c(=O)oc3cc(S(=O)(=O)N4CCC(C)CC4)ccc32)CC1`: the survival was inactive: 130%. In the case of `Cc1ccc(Cn2nnnc2CN2CCC(NC(=O)C(C)(C)C)CC2)cc1` it was inactive: 122%. As to `COCCNC(=O)Cn1c(=O)n(CCCCCC(=O)NCc2ccc3c(c2)OCO3)c(=O)c2sccc21`, the survival was inactive: 86%. Then `CCOCCCNc1ncnc2c1cnn2-c1ccc(C)c(C)c1`, with inactive: 69%; and `Cc1ccccc1NC(=O)CSc1nc2c(c(=O)n(C)c(=O)n2C)n1Cc1ccccc1F`, with inactive: 81%. In the case of `Cc1cc2c(cc1S(=O)(=O)N1CCCCC1)OCC(=O)N2`, the survival is inactive: 111%. On to `O=C(C1CCCCC1)N1CCN(c2ncnc3c2cnn3-c2ccccc2)CC1`, for which the survival is inactive: 101%. In the case of `CCNc1nc(OC)nc(Oc2ccc(=O)[nH]n2)n1`, the survival is inactive: 67%. Then `COc1ccc(-c2nc(CSc3nncn4c3cc3sccc34)c(C)o2)cc1OC`, with inactive: 88%; and `O=C(CN1C(=O)CCc2cc(S(=O)(=O)N3CCOCC3)ccc21)NCc1ccccc1`, with inactive: 75%; and `CC(C)(C)c1ccc(S(=O)(=O)N2CCN(Cc3noc(CCC(=O)N4CCCCC4)n3)CC2)cc1`, with inactive: 73%.

For the compound `CCc1ccc(NC(=O)CSC2=Nc3ccccc3C3=NC(CCC(=O)NCc4ccco4)C(=O)N23)cc1` (stereo not given), the survival is inactive: 66%. On to `CCCNC(=O)c1ccc2nc(CCc3ccccc3)oc2c1`, for which the survival was inactive: 73%. Consider `O=c1[nH]c2cc3c(cc2cc1CN(CCO)C(=S)Nc1cccc(Cl)c1)OCO3`, for which the survival is inactive: 99%. On to `Cc1cc(C)cc(S(=O)(=O)c2cn(C)c3cc(N4CCCC4)c(F)cc3c2=O)c1`, for which the survival was inactive: 81%. As to `O=C1OC(c2ccccc2)=C/C1=C/c1ccco1`, the survival is inactive: 133%. Then `Cc1ccc(-c2nc3sc(CCNC(=O)c4ccc(C)c(C)c4)c(C)n3n2)cc1`, with inactive: 59%; and `COc1ccc(C(=O)n2nc(-c3ccco3)nc2NCc2cccs2)cc1OC`, with inactive: 100%; and `CCc1ccccc1NC(=O)N(C)CCc1c(C)nn(C)c1C`, with inactive: 120%. In the case of `CC(=O)c1cccc(NC(=O)c2cc(-c3ccc(Cl)s3)nc3ccccc23)c1` it was inactive: 105%; in that of `CCn1c(CNC(=O)c2ccccc2)n[nH]c1=S`, inactive: 125%; in that of `COc1ccc(NC(=O)CC2C(=O)N(c3cccc(C)c3)C(=O)N2C2CCCCC2)cc1` (stereo not given), inactive: 80%. As to `Cc1cc(/C=C(\C#N)C(=O)NCc2cccs2)c(C)n1C1CCCC1`, the survival is inactive: 112%.

As to `CCNc1nc2n(c(=O)n1)CCN2CC`, the survival is inactive: 129%. Turning to `COc1ccc(-c2nnc(SCC(=O)Nc3ccc(C(C)C)cc3)nc2-c2ccc(OC)c(OC)c2)cc1OC`, the survival is inactive: 75%. Then `CC(C)c1ccc(S(=O)(=O)c2nnn3c2nc(N2CCCCC2)c2sccc23)cc1`, with inactive: 69%; and `C1=C(C(c2nnnn2C2CCCCC2)N2CCCCC2)COc2ccccc21` (stereo not given), with inactive: 103%; and `Cc1ccc(C)c(Cn2c(-c3cccs3)nc3ccccc32)c1`, with active: 8%. For the compound `Cc1ccc(C)c(CN2C(=O)N(c3cc(Cl)ccc3C)S(=O)(=O)c3ccccc32)c1`, the survival was inactive: 59%. `CC(C)Cc1ccc(S(=O)(=O)Nc2cc3c(cc2N2CCOCC2)n(C)c(=O)c(=O)n3C)cc1`: the survival is inactive: 63%.

As for `CCOc1ccccc1CNS(=O)(=O)c1ccc2[nH]c(=O)ccc2c1`, the survival is inactive: 71%. In the case of `COc1ccc(COC(=O)C2=C(C)NC3(O)c4ccccc4C(=O)C23O)cc1` (stereo not given) it was inactive: 89%; in that of `COc1cccc(C(=O)Nc2ccc(-c3cc(C(F)(F)F)nn3-c3ccccc3)cc2)c1`, inactive: 84%; in that of `CCN(CCCNC(=O)CN1N=C(c2ccc(OC)cc2)CCC1=O)c1cccc(C)c1`, inactive: 124%.

With `COc1ccc(NC(=O)CSc2nnc(NC(=O)Nc3ccc(OC)cc3)s2)cc1`, the survival is inactive: 79%. For the compound `Oc1cc2ccsc2c2ccccc12`, the survival is active: 18%. Then `CCOC(=O)C1CCCN(C(=O)c2cc3c(=O)[nH]c4ccc(C)cc4c3s2)C1` (stereo not given), with inactive: 59%; and `CN(Cc1ccccc1)S(=O)(=O)c1cc(Br)cc2c1N(C(=O)C1CC1)CC2`, with inactive: 50%. In the case of `CCC(C(=O)Nc1c(C)cc(C)cc1C)n1c(=O)c(-c2ccccc2NC(C)=O)nc2ccccc21` (stereo not given), the survival was inactive: 87%. Then `Cc1cccc(NC(=O)CCCCCn2c(=O)[nH]c3ccsc3c2=O)c1`, with inactive: 71%.

On to `COc1cccc(Nc2sc(C(=O)c3ccc(F)cc3)c(N)c2C(=O)NCc2ccc(Cl)cc2)c1`, for which the survival is active: 0%. Then `CCOc1ccc(CCNC(=O)CCCn2nc(C)c3sc4ccccc4c3c2=O)cc1`, with inactive: 85%; and `CCCCN(C)CCCNC(=O)c1cc(-c2ccc(Br)s2)nc2ccccc12`, with active: 26%; and `Cc1ccc(NS(=O)(=O)c2c(C)[nH]c(=O)[nH]c2=O)c(C)c1`, with inactive: 84%. Then `CC1CC(C)CN(C(=O)Cn2c(SCC(=O)N(C(C)C)C(C)C)nc3ccccc32)C1` (stereo not given), with inactive: 106%; and `COc1cccc(N2CC(NC(=O)CCCc3ccccc3)CC2=O)c1` (stereo not given), with inactive: 88%. In the case of `COc1ccc(-c2ccc(NS(=O)(=O)c3ccc(C(C)=O)cc3)cc2)nn1` it was inactive: 76%. Regarding `NNC(=O)CCc1nc2ccccc2[nH]1`, the survival was inactive: 110%.

In the case of `Cc1cccc(N2CCN(C(=O)c3cn(CC(C)C)c(=O)c4c3c3ccccc3n4C)CC2)c1C`, the survival is inactive: 89%. In the case of `COc1cc(S(=O)(=O)N2CCN(C)CC2)c(C)cc1C` it was inactive: 103%; in that of `Cc1ccc(-c2noc(CNC(=O)c3ccc(Br)o3)n2)cc1`, inactive: 99%; in that of `Cc1cc(C)c(C(=O)O)c(=O)[nH]1`, inactive: 104%. On to `Cc1cccc(N2CCN(C(=O)c3cccc(-n4c(C)nc5cccnc54)c3)CC2)c1C`, for which the survival is inactive: 126%. Then `Cc1ccccc1-c1nc2cc(NC(=O)Cc3ccc(Cl)cc3)ccc2o1`, with inactive: 94%; and `CCOc1ccccc1CNC(=O)C1CCN(c2nn3cc(-c4ccc(F)cc4)nc3s2)CC1`, with inactive: 93%; and `CCCCCCOc1ccc(C2C(=O)N(C3CCCCC3)CC(=O)N2CCC)cc1` (stereo not given), with inactive: 75%. Then `N#C/C(=C\c1ccc(Cl)cc1Cl)c1nc(-c2cccc(Cl)c2)cs1`, with inactive: 82%. Consider `CCOc1ccccc1N(CC(=O)NCCSc1ccccc1)S(=O)(=O)c1ccccc1`, for which the survival was inactive: 75%.
